The values below come from PubChem BioAssay AID2016 (NMMLSC, 2009).

Among all 330,000 compounds or so, about 1,700 (0.52%) were called active.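 Rule for the calls: active = GFP response versus DMSO above a set limit, roughly screen mean plus 3 SD (cut at about 180% in these data); inconclusive = fewer than 70 cells counted for a yeast strain; inactive = the rest.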 The source holds several records for some structures; these can differ, active in one and inactive in another. For part of its entries the source gives two or more results. They are shown here; other results are not. An entry can have further records. Results that share an entry are repeated measurements across runs, samples, wells, individuals or studies. Records carry a tag for their origin. Letters hold for one entry only.

A short description of this test: modulators of MEP2-GFP levels in yeast, primary screen, S. cerevisiae, multiplex flow cytometry, MLPCN library (AID 2016).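 Note: median GFP fluorescence of the barcode-gated MEP2-GFP cells per well.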 Particulars: S. cerevisiae MEP2-GFP strain, 3 h, at 10 µM, stronger effect = higher value, 100% = DMSO control level. In general terms: In flow cytometry, cells or beads pass a laser one at a time.
As to `O=C(Cn1c[n+](CC(=O)c2ccc([N+](=O)[O-])cc2)cn1)c1ccc([N+](=O)[O-])cc1`, the GFP response vs DMSO entry is “inactive: 90.3% [sample A] and active: 222% [may fluoresce violet] [sample B]”.
